Laboratory results taken from PubChem BioAssay AID651820 (National Center for Advancing Translational Sciences (NCATS), 2012).
Screen size: about 340,000 compounds; about 12,000 (3.5%) were called active. This list was built around the results that the source calls inconclusive (neither active nor inactive); the mix of calls is not that of the screen. Calls come from the whole dose curve; as a rule, active = well fitted inhibition curve with a large enough effect; inconclusive = small, poorly fitted or top-dose-only effect, or another doubt; inactive = no such curve, though single readings can be large or run the other way. Potencies of inconclusive entries are left out as doubtful fits.
% is set by controls: 0 for no effect and ±100 for the full control effect; potency is the fitted concentration of half-maximal effect; tags give direction and shape of the fitted curve.

Experiment: qHTS Assay for Inhibitors of Hepatitis C Virus (HCV)
Details: Huh7.5.1 HCVcc-Cre (HCVcc is cell-culture hepatitis C virus) infection, luciferase reporter, 44 h; activity change, negative = inhibition: at 41.8 µM (top of the series) unless noted
Outline: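 Infectious HCV cell culture screen: compound-treated cells (1,000/well, pre-plated 4 h) are infected with HCVcc-Cre at roughly 0.5 moi and grown 44 h. Infection is quantified by luciferase signal after 15 min substrate incubation at room temperature.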
In the case of `COc1ccc(/C=C/C(=O)N2CCN(S(=O)(=O)c3ccccc3)CC2)cc1OC`, the Potency was “inactive”. In the case of `COC(=O)c1cccc(C23CC4(C2)[C@H](CN(Cc2ccc(C(F)(F)F)cc2)[C@@H]4c2ccccc2)C3c2ccccc2)c1` (some centres not stated), the Potency was “inactive”. In the case of `COc1ccc(CNCc2cc3c(cc2[N+](=O)[O-])OCO3)cc1`, the Potency was inconclusive [inhibitor, single point]. In the case of `O=[N+]([O-])c1cccc(/C=C/c2ccncc2)c1`, the Potency was inconclusive [inhibitor, single point]. In the case of `CCN(CC)S(=O)(=O)c1ccc(NC(=O)c2ccc(N(C)S(C)(=O)=O)cc2)cc1`, the Potency was active: 4.47 µM. For `Cc1ccc2nc(Nc3nc(CSc4nnc(C)s4)cc(=O)[nH]3)nc(C)c2c1`, the Potency was inconclusive [inhibitor, partial curve]. For `CCOC(=O)c1[nH]c(=O)[nH]c1CSc1ccccn1`, the Potency was “inactive”. In the case of `CCOc1ccc(C2N(c3cc(Cl)ccc3OC)C(=O)C3CCCN32)cc1OC` (configuration not stated), the Potency was “inactive”. With `O=C1N(Cc2cccc(Cl)c2)C[C@@H]2C[C@@H](c3cccn3-c3cccnc3)N3CCC[C@@]123` the Potency was active: 10 µM. In the case of `CCCOc1cccc(NC(=O)c2c(-c3ccccc3)noc2C)c1`, the Potency was “inactive”. With `C/C(=N\NC(=O)COc1ccc2ccccc2c1)c1cccs1` the Potency was inconclusive [inhibitor, single point]. For `CCOc1ccc(C2=NNC(c3cccnc3)=Nc3ccc(OC)cc32)cc1`, the Potency was inconclusive [inhibitor, single point]. For `CCC(=O)Nc1ccc(-c2ccc(N3CCN(C)CC3)nn2)cc1`, the Potency was “inactive”. For `CCC1CCCCN1CC(=O)c1c(C)[nH]c2ccc(OC)cc12` (configuration not stated), the Potency was “inactive”. With `CCN(CC)c1ncnc2c1ncn2Cc1c(Cl)cccc1Cl` the Potency was active: 12.6 µM. With `CC(=O)Nc1ccc(Nc2nc(C)c([N+](=O)[O-])c(Nc3ccc(NC(C)=O)cc3)n2)cc1` the Potency was inconclusive [inhibitor, single point]. In the case of `CCOc1ccc(-n2c(SCc3ccc(C#N)cc3)nnc2-c2cccnc2)cc1`, the Potency was “inactive”. For `C/C(Cl)=C\Cn1c(N2CCCC2)nc2c1c(=O)[nH]c(=O)n2C`, the Potency was “inactive”. With `CC(C)N(C(=O)[C@H]1C[C@H](CC(=O)NCC23CC4CC(CC(C4)C2)C3)C(=O)N2CCc3c([nH]c4ccc(Cl)cc34)[C@]12C)C(C)C` the Potency was active: 15.8 µM. In the case of `Cc1cccc(C(=O)c2c(N)sc3c2CCC(C)C3)c1` (configuration not stated), the Potency was inconclusive [inhibitor, partial curve]. For `N#C/C(=C/C1=C(N2CCOCC2)C(=C/c2cccc([N+](=O)[O-])c2)/CC1)C(=O)Nc1ccccc1F`, the Potency was inconclusive [inhibitor, partial curve, poor fit]. In the case of `CCN(CC)CCN(C(=O)/C=C/c1cccs1)c1nc2ccc(F)cc2s1`, the Potency was inconclusive [inhibitor, partial curve]. In the case of `COc1cc(-c2noc(C3CCCN(C(=O)c4c(F)cccc4F)C3)n2)cc(OC)c1OC` (configuration not stated), the activity change, negative = inhibition was inconclusive: -34.2% [inhibitor]. In the case of `C/C(CC(=O)Nc1ccc(Cl)c(Cl)c1)=N\NC(N)=S`, the Potency was inconclusive [inhibitor, full curve, poor fit]. In the case of `COc1cc(CC(=O)OCC(=O)Nc2sccc2C(N)=O)cc(OC)c1OC`, the Potency was active: 10 µM. In the case of `COc1ccc2c(c1)c1nnc(SCC(=O)N3CCCCC3C)nc1n2C` (configuration not stated), the Potency was “inactive”. In the case of `S=c1[nH]ncn1-c1ccccn1`, the Potency was inconclusive [inhibitor, single point]. With `COc1ccc(-c2cc(-c3c(O)c(OC)c4occc4c3OC)[nH]n2)cc1` the Potency was active: 31.6 µM. For `COC12CCC3(CC1C(C)(O)C(C)(C)C)[C@H]1Cc4ccc(O)c5c4[C@@]3(CCN1CC1CC1)C2O5` (some centres not stated), the Potency was inconclusive [inhibitor, full curve, poor fit]. In the case of `CC(=O)c1ccc(OCCCC(=O)OCC(=O)Nc2ccc3[nH]c(=O)[nH]c3c2)cc1`, the Potency was “inactive”. For `N#CCc1c(C#N)c(N)nc(N2CCN(Cc3ccc4c(c3)OCO4)CC2)c1C#N`, the Potency was inconclusive [inhibitor, single point]. With `CCOC(=O)c1c(NC(=S)N2CCOCC2)sc(C)c1C` the Potency was “inactive”. For `Cc1ccc(S(=O)(=O)N(C)C)cc1NC(=O)CN1C(=O)NC(Cc2c[nH]c3ccccc23)C1=O` (configuration not stated), the Potency was “inactive”. In the case of `CN(C(=O)c1ccc(NC(=O)Cc2cccc(NC(=O)C3CCCN(C(=O)C4CCC4)C3)c2)cc1)C1CC1` (configuration not stated), the Potency was inconclusive [inhibitor, single point]. For `CCCCNC(=S)NNC(=O)c1csc(CC)c1`, the Potency was “inactive”. In the case of `CCOC(=O)c1cc(-c2nnc(-c3ccc(Cl)cc3)o2)c(C)nc1C`, the Potency was “inactive”. In the case of `COc1ccc2nc(N3CCN(C(=O)C4COc5ccccc5O4)CC3)sc2c1` (configuration not stated), the Potency was inconclusive [inhibitor, single point]. With `CCc1ccc(OCC2c3cc(OC)c(OC)cc3CCN2C(C)=O)cc1` (configuration not stated) the Potency was inconclusive [inhibitor, single point]. For `C=CC(=O)N1C/C(=C/c2ccc(F)cc2)C(=O)/C(=C\c2ccc(F)cc2)C1`, the Potency was inconclusive [inhibitor, full curve]. With `CC(C)(C)c1nnc(N/N=C/c2cc(Br)ccc2O)n(N)c1=O` the Potency was inconclusive [inhibitor, partial curve]. In the case of `C=C1CCN([C@H](C(=O)NCc2ccc(Cl)cc2)C(C)C)S(=O)(=O)c2ccccc21`, the Potency was “inactive”. With `CC(=O)c1ccc(NC(=O)Nc2ccc(NS(=O)(=O)c3ccc(C)cc3)cc2)cc1` the Potency was active: 11.2 µM. With `O=C(Nc1nnc(-c2ccccc2)o1)c1cccc(S(=O)(=O)N2CCOCC2)c1` the Potency was inconclusive [inhibitor, single point]. With `CC1CCCCN1CC(=O)Nc1ccc(Oc2ccccc2)cc1` (configuration not stated) the Potency was inconclusive [inhibitor, partial curve]. For `COc1ccc(Oc2nc(C)cc(C)c2C#N)cc1`, the Potency was inconclusive [inhibitor, partial curve]. In the case of `O=C(CSc1nncn1-c1cccnc1)Nc1cccc([N+](=O)[O-])c1`, the Potency was inconclusive [inhibitor, single point]. With `COc1cc(/C=C/C(=O)OCC(=O)c2ccc[nH]2)cc(OC)c1OC` the Potency was inconclusive [inhibitor, partial curve]. In the case of `COCOc1ccc(C=O)cc1OCOC`, the Potency was “inactive”. With `COc1ccc2sc(-c3ccc(N(C)C)cc3)c(C#CCO)c2c1` the Potency was inconclusive [inhibitor, full curve]. In the case of `O=C(Cc1ccc([N+](=O)[O-])cc1)NC1CCCCCC1`, the Potency was inconclusive [inhibitor, single point]. With `Cc1ccc(CNS(=O)(=O)c2c(C(=O)N3CCCCC3)c(C)n(C)c2C)o1` the Potency was inconclusive [inhibitor, single point]. With `CCCc1c(C(=O)OCC)[nH]c2c1C(=O)CCC2` the Potency was inconclusive [inhibitor, single point]. For `COC(=O)c1ccc(SCC(=O)NCc2ccccc2)c([N+](=O)[O-])c1`, the Potency was active: 14.1 µM. For `COc1ccc(OC)c(NC(=O)c2ccc(NS(=O)(=O)c3c(C)noc3C)cc2)c1`, the Potency was inconclusive [inhibitor, single point]. With `CCc1ccccc1NC(=O)CN(C)S(=O)(=O)c1ccc2c(c1)c(=O)n(C)c(=O)n2C` the Potency was inconclusive [inhibitor, single point]. For `O=C1c2ccccc2S(=O)(=O)c2cc(C(=O)N3CCC(C(=O)N4CCCCC4)CC3)ccc21`, the Potency was “inactive”. With `O=C(Oc1ccc(-c2cnc3ccccc3n2)cc1)c1cccc([N+](=O)[O-])c1` the Potency was “inactive”. With `COCCCN(C(=S)Nc1ccc(C)cc1Cl)C(C)c1ccncc1` (configuration not stated) the Potency was “inactive”. In the case of `COC(=O)C1(Cc2cc(-c3ccc(OC)cc3OC)no2)CCN(C(=O)OC(C)(C)C)CC1`, the Potency was inconclusive [inhibitor, single point]. In the case of `CC(C)c1nc2oc3c(N4CCNCC4)ncnc3c2c2c1CCC2`, the Potency was inconclusive [inhibitor, partial curve]. For `COC(=O)c1c(Cl)c2n3ccccc3c(C)c(-c3ccccc3)c-2c1C(=O)OC`, the Potency was active: 12.6 µM. In the case of `O=C(CCl)NN1C(=O)NC(c2ccccc2)(c2ccccc2)C1=O`, the Potency was inconclusive [inhibitor, single point]. In the case of `O=C1N[C@@H](Cc2c[nH]c3ccccc23)COC(=O)[C@@H](Cc2ccc(F)cc2)C/C=C\C[C@H]1CC(=O)N(CCO)Cc1ccccc1`, the Potency was inconclusive [inhibitor, single point]. For `CCn1cnc2c1c(=O)n(Cc1cccc(Br)c1)c(=O)n2Cc1ccccc1`, the Potency was “inactive”. With `CCCOc1ccccc1NC(=O)c1ccc(N)cc1` the Potency was active: 7.08 µM. For `CS(=O)(=O)N1CCCC(C(=O)Nc2ccc(F)cc2F)C1` (configuration not stated), the Potency was “inactive”. With `Cc1ccc(C2=NNC(=Nc3ccc(F)cc3)SC2)cc1` the Potency was inconclusive [inhibitor, partial curve]. For `Cc1ccccc1NC(=O)NNC(=O)OC(C)(C)C`, the Potency was “inactive”. For `CCOc1cc(C2C(C(=O)OC)=CN(C3CCCC3)C=C2C(=O)OC)cc(Br)c1O`, the Potency was inconclusive [inhibitor, single point]. In the case of `COc1ccc(NC(=O)C(=O)N/N=C/c2cccnc2)c(OC)c1`, the Potency was “inactive”. With `COc1ccc(NC(=S)N2CCN(C/C=C/c3ccccc3)CC2)cc1` the Potency was inconclusive [inhibitor, full curve]. For `Cc1ccc2c(c1)c1c3n2CCN(C(=O)Cn2c(-c4ccccc4)noc2=O)C3CCC1` (configuration not stated), the Potency was inconclusive [inhibitor, partial curve, poor fit].
